# Results from PubChem BioAssay AID1508623 (National Center for Advancing Translational Sciences (NCATS), 2021).
# About 450 (0.94%) of roughly 48,000 compounds were called active. Roughly 19% stayed inconclusive and do not appear here. Calls follow the shape of the dose curve; as a rule, active = well fitted inhibition curve with a large enough effect; inconclusive = small, poorly fitted or top-dose-only effect; inactive = no such curve, though single readings can be large or run the other way. This is one part of the list.
# Assay: Primary qHTS for Identification of Small Molecule Inhibitors of Huntingtin Promoter Activity; also: nearly all actives have a fitted effect of over 50% in size
# Conditions: HEK293 HTT promoter firefly luciferase reporter (activity 0% = vehicle and -100% = no light), 24 h; series mostly up to 57.5 µM; activity change, negative = inhibition: at the top concentration
# Method in brief: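 HEK293 cells carrying firefly luciferase reporters were seeded at 2,500 per well in Opti-MEM and cultured for 24 h. They were then treated with compounds at up to 57.5 uM final for 24 h at 37 degrees C before Dual-Glo luminescence readout.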
row,SMILES,"activity change, negative = inhibition"
1,Cc1cc2oc(C(=O)Nc3ccc(S(N)(=O)=O)cc3)cc(=O)c2cc1C,inactive: -0.926% [at 11.5 µM]
2,C[C@]12CC[C@H](O)CC1=CCC1C2CC[C@]2(C)C(n3cnc4ccccc43)=CCC12 (some centres not stated),inactive: 6.4%
3,CCc1cccc(NC(=O)CN2C(=O)COc3ccc(S(=O)(=O)Nc4ccccc4)cc32)c1,inactive: -28.3%
4,Cc1ccc(OCc2nc(-c3ccc(C(=O)N4CCN(c5ccccc5F)CC4)cc3)oc2C)cc1,inactive: -18.6%
5,O=C1OC(C(=O)Nc2cccc(Br)c2)Cc2ccccc21 (configuration not stated),inactive: 0.688%
6,COc1ccc(CNC(=O)Cn2c(SCC(=O)Nc3ccc(OC)cc3)nc3ccccc32)cc1,inactive: -15%
7,Cc1cccc(-n2ncc(C(=O)N3CCN(c4ccc(Cl)cc4)CC3)c2C2CCN(C(=O)OC(C)(C)C)CC2)c1,inactive: 4.03%
8,CCc1ccc2nc(N(CCN(CC)CC)C(=O)c3ccco3)sc2c1,inactive: 24.5%
9,Cc1ccc(NC(=O)c2ccc(-c3cccc(Cl)c3C)o2)cc1,inactive: 13.6%
10,COc1ccc(OC)c(CNC(=O)c2cc3c(-c4ccc(OC)c(OC)c4)nn(C)c3s2)c1,inactive: -9.24%
11,CN(C)S(=O)(=O)N(CC(=O)NCCSCc1ccccc1)c1ccccc1,inactive: -12.1%
12,Cc1ccc(C)c(NC(=O)CN2CCCN(Cc3cccc(Cl)c3)S2(=O)=O)c1,inactive: -18.8%
13,Cc1cc(OC(C)C(=O)Nc2c(C(=O)c3ccc(F)cc3)oc3ccccc23)ccc1Cl (configuration not stated),inactive: -9.48%
14,CCc1ccc(Sc2cc(C(=O)NCc3ccccc3OC)c3ccccc3n2)cc1,inactive: -28.4%
15,COC(=O)c1ccc(OCC2c3cc(OC)c(OC)cc3CCN2C(=O)Cc2ccc(OC)cc2)cc1 (configuration not stated),inactive: -27.8%
16,CCOc1ccc(N2CC(NC(=O)C(=O)c3c[nH]c4ccccc34)CC2=O)cc1 (configuration not stated),inactive: -9.76%
17,CCn1c(=O)cc(SCC(=O)NCc2ccc(F)cc2Cl)c2ccccc21,inactive: -24.7%
18,Cc1nn2c(-c3cccc(NC(=O)c4ccccc4)c3)nnc2c2ccccc12,inactive: 5.07%
19,COc1ccc(-c2cn3c(n2)sc2cc(C(=O)Nc4ccc(C)c(C)c4)ccc23)cc1,inactive: -1.69%
20,Cc1cccc(N2CCN(C(=O)CCc3nnc4n(CC(C)C)c(=O)c5ccccc5n34)CC2)c1C,inactive: -20.8%
21,COc1ccc(-c2cc(C)no2)cc1S(=O)(=O)N1CCOc2ccccc21,inactive: -22.5%
22,CCOC(=O)c1c(C)oc2ccc(N(C(=O)Oc3ccccc3)S(=O)(=O)c3ccc(CC)cc3)cc12,inactive: -25.1%
23,CC(C)c1ccc(OCC(=O)NC(Cc2c[nH]c3ccccc23)C(=O)O)cc1 (configuration not stated),inactive: -6.38%
24,O=C(Nc1ccc(F)cc1)c1oc2ccccc2c1NC(=O)C12CC3CC(CC(C3)C1)C2,inactive: -9.3%
25,Cc1cccc(OC(=O)CSc2nnc(CNC(=O)c3ccccc3)o2)c1C,inactive: -11.4%

row,SMILES,"activity change, negative = inhibition"
1,CCc1nnc(SCc2cc(C)ccc2C)c2cc3sc(C)cc3n12,inactive: -19.9%
2,CCOC(=O)c1c(C)[nH]c(C)c1S(=O)(=O)N1CCC(C(=O)N2CCN(c3ccccc3F)CC2)CC1,inactive: -21.6%
3,COc1ccc(C2CC(=O)c3cc(-c4nc(-c5ccc(Cl)cc5)c(C)s4)c(=O)[nH]c3C2)cc1 (configuration not stated),inactive: -3.96%
4,Cc1ccc2c(c1)-c1cc(C)nn1C(c1cc(Br)ccc1O)N2 (configuration not stated),inactive: 5.67%
5,CCNC(=O)[C@H]1O[C@@H](n2cnc3c(N)nc(NCCc4ccc(CCC(=O)O)cc4)nc32)[C@H](O)[C@H]1O,inactive: -4.82%
6,O=S(=O)(Nc1nc2n(n1)C(c1ccc(F)cc1)C=C(c1ccccc1)N2)c1ccccc1 (configuration not stated),inactive: -5.41%
7,COC(=O)c1ccc2c(=O)n(CCCCCC(=O)NCc3ccc(Cl)cc3)c(=O)[nH]c2c1,inactive: -40.2%
8,Cc1ccc2ncc(C(=O)Nc3ccc(F)cc3F)c(=O)n2c1,inactive: 35.9%
9,Cc1cc(C)c2c(=O)cc(C(=O)Nc3ccccc3C(F)(F)F)oc2c1,inactive: -11.5%
10,Cc1cc(NC(=O)CCS(=O)(=O)c2cc3c4c(c2)CCN4C(=O)CC3)ccc1Br,inactive: -12.9%
11,CCOC(=O)c1c(-c2ccc(Br)cc2)csc1NC(=O)c1ccc(F)cc1,inactive: -6.22%
12,COC(=O)c1ccccc1NC(=O)CSc1nc2ccccc2nc1Cc1ccccc1OC,inactive: 1.43%
13,CN(C(=O)c1cc2nc(-c3ccco3)cc(C(F)(F)F)n2n1)c1ccc(OC(F)(F)Cl)cc1,inactive: 3.19%
14,Cc1ccc(CSc2cn(CC(=O)N3CCCC3)c3ccccc23)cc1,inactive: 21%
15,O=C(CCS(=O)(=O)c1cc(Br)cc2c1N(C(=O)C1CC1)CC2)NCc1ccc(Cl)cc1,inactive: -28.7%
16,O=C(Nc1cc(-c2nc3ccccc3o2)ccc1Cl)c1ccc(N2CCCCC2)c([N+](=O)[O-])c1,inactive: 46.9%
17,CCN(Cc1ccncc1)C(=O)C(CO)c1ccccc1 (configuration not stated),inactive: -2.43%
18,CN(C)CCOC1=Cc2ccccc2Sc2ccc(Cl)cc21,inactive: -7.18%
19,Cc1ccc(NC(=O)Cn2cc(S(=O)(=O)c3ccc(C)cc3)c(=O)c3cc4c(cc32)OCO4)cc1,inactive: -18.7%
20,Cc1ccc(-c2nc(SCCOc3ccccc3C)n3[nH]c(=O)cc3n2)cc1,inactive: -2.31%
21,CCc1ccccc1N(CC)C(=O)c1c(C)oc2ncnc(N3CCOCC3)c12,inactive: 0.839%
22,CCOC(=O)C1CCN(c2nc3c(S(=O)(=O)c4ccccc4)nnn3c3ccsc23)CC1,inactive: -3.32%
23,COc1ccc(NC(=O)Nc2nnc(C)s2)cc1,inactive: 31.2%
24,Cc1ccccc1C(=O)Nc1ccc(OCc2cc(=O)n3cccc(C)c3n2)cc1,inactive: -1.46%
25,CC1=C(c2ccc(C)c(C)c2)S(=O)(=O)N=C1N1CCC(C(=O)N2CCC(C(N)=O)CC2)CC1,inactive: -8.25%

row,SMILES,"activity change, negative = inhibition"
1,O=c1c2oc3ccccc3c2n(Cc2ccc(Cl)cc2)c(=O)n1Cc1ccco1,inactive: -19.7%
2,O=C1COc2cc(S(=O)(=O)NCc3ccco3)c(Cl)cc2N1,inactive: -1.83%
3,Cc1cccc(CN2CCC(CNC(=O)c3c(C)oc4ncnc(N5CCCCC5)c34)CC2)c1,inactive: -3.44%
4,CC(=O)N1CCOc2cc(S(=O)(=O)NC(C)c3ccccc3)c(Cl)cc21 (configuration not stated),inactive: -15.1%
5,CCN(CC)CCNC(=O)c1c(C)oc2ncn(C)c(=O)c12,inactive: 10.3%
6,CCN(CC)CC#CCOC(=O)C(O)(c1ccccc1)C1CCCCC1 (configuration not stated),inactive: -0.97%
7,Cc1oc2ccc(O)c(CN(C)Cc3ccccc3)c2c1C(=O)Nc1ccccc1,inactive: -16.7%
8,Cn1cnc(S(=O)(=O)N2CCC(C(=O)NCc3ccccc3Cl)CC2)c1,inactive: -5.35%
9,CCN(c1ccccc1)c1nnc(NC(=O)Nc2ccc(Br)cc2)s1,inactive: 21.2%
10,Cc1ncc([N+](=O)[O-])n1CCO,inactive
11,COc1cccc(NC(=O)CSc2nc3ccc(NC(=O)c4cccs4)cc3s2)c1,inactive: -6.63%
12,Cc1ccc(NC(=O)Nc2nnc(N3CCCC3)s2)cc1,inactive: 13.9%
13,CCOC(=O)c1c(NC(=O)/C=C/c2ccc(C(C)C)cc2)sc2c1CCC2,inactive: -5.09%
14,COC(=O)Nc1nc2ccc(C(=O)C3CC3)cc2[nH]1,inactive: -0.821%
15,CNS(=O)(=O)c1cn(CC(=O)N2CCN(c3ccccc3F)CC2)cc1S(=O)(=O)NC,inactive: 1.79%
16,CCc1ccc(OC(C)c2nc(-c3ccc(-n4cccc4)cc3)no2)cc1 (configuration not stated),inactive: -17.3%
17,OC(CCN1CCCCC1)(c1ccccc1)C1CC2C=CC1C2 (configuration not stated),inactive
18,O=S(=O)(NCc1csc(-c2ccccc2)n1)c1cccc(F)c1,inactive: -9.05%
19,Cc1ccc(CN(Cc2ccco2)C(=O)COc2ccccc2C)cc1,inactive: -24.8%
20,CCOC(=O)c1ccc(NC(=O)CCc2c(C)nc3c(c(C)nn3-c3ccccc3)c2C)cc1,inactive: -11.1%
21,CC(=O)c1ccc(NC(=O)CCc2c(C)nc3c(c(C)nn3-c3ccc(C)cc3)c2C)cc1,inactive: 32.8%
22,COc1ccccc1NC(c1ccc(Cl)cc1)c1nnc(-c2cccc(F)c2)o1 (configuration not stated),inactive: -18.3%
23,Cc1nn2c(=O)cc(CN(C)c3ccccc3)nc2s1,inactive: -10%
24,O=C(COc1ccccc1Cl)Nc1cc(-c2ccccc2F)nn1-c1ccccc1,inactive: 3.31%
25,Cc1cc(C)cc(NC(=O)CN(c2cc(C(F)(F)F)ccc2Cl)S(=O)(=O)c2ccccc2)c1,inactive: -28.9%

row,SMILES,"activity change, negative = inhibition"
1,O=C(CCS(=O)(=O)c1nc(-c2cccs2)cc(C(F)(F)F)n1)Nc1ccc(OC(F)(F)F)cc1,inactive: -3.15%
2,COc1ccc(C2c3c(oc4ccccc4c3=O)C(=O)N2Cc2ccc3c(c2)OCO3)cc1 (configuration not stated),inactive: -2.22%
3,COC(=O)c1ccccc1NC(=O)C1=CC(c2ccc(C)cc2)=NS(=O)(=O)N1C,inactive: -8.74%
4,COc1ccc(OC)c(NC(=O)c2cc3c(n(-c4ccc(Cl)cc4)c2=O)CC(C)(C)CC3=O)c1,inactive: -12.6%
5,O=C(CN1CCN(Cc2ccc(F)cc2)C1=O)NCc1ccccc1Cl,inactive: -5.77%
6,COc1cccc(-c2nn(C)c3sc(C(=O)NCc4cc(OC)ccc4OC)cc23)c1,inactive: -26.9%
7,CCN(CC)CCSC(=O)C(c1ccccc1)c1ccccc1,inactive: 8.29%
8,C#CCN(C)Cc1ccccc1,inactive: 6.61%
9,CCN1c2ccccc2-n2cccc2C12CCN(C(=O)Nc1ccccc1C(F)(F)F)CC2,inactive: -12.3%
10,CCOc1ccc(OCC)c(NC(=O)C2CCCN(S(=O)(=O)c3ccc4c(c3)oc(=O)n4C)C2)c1 (configuration not stated),inactive: -5.91%
11,CCOc1ccc(CNC(=O)Cn2c(=O)c3cccn3c3ccc(F)cc32)cc1,inactive: -0.513%
12,Cc1cccc(-c2nc(SCCCOc3ccccc3Cl)n3[nH]c(=O)cc3n2)c1,inactive: -4.27%
13,Cc1cc(C)cc(-n2c(SCC(=O)N3CCc4ccccc43)nc3c([nH]c4ccccc43)c2=O)c1,inactive: -10.2%
14,Cn1nc(C(=O)N2CCN(c3ccc(Cl)cc3)CC2)c2c1-c1ccccc1SC2,inactive: -15.4%
15,Cc1ccc(NC(=O)Cn2nnnc2-c2ccccc2N)cc1,inactive: -1.72%
16,O=c1c2cc3c(cc2nc2sc(Nc4ccc(F)cc4F)nn12)OCO3,inactive: 7.5%
17,c1ccc(CNc2nc3ccccc3c3nc(-c4ccccc4)nn23)cc1,inactive: 1.21%
18,Cn1c(=O)c2nc(SCC(=O)Nc3cc(Cl)ccc3Cl)n(C)c2n(C)c1=O,inactive: -7.83%
19,NC(=O)CSc1nc2c(oc3ccccc32)c(=O)n1-c1ccccc1F,inactive: -18.9%
20,COc1cccc(CNC(=O)CSc2ccc(-c3sc(-c4ccccc4)nc3C)nn2)c1,inactive: -30%
21,COc1ccc(Cl)cc1NC(=O)N1CCC(CN2CCc3ccccc3C2)CC1,inactive: -26.9%
22,CCOc1ccc(C(=O)NCC(c2ccco2)S(=O)(=O)c2ccc(C)cc2)cc1 (configuration not stated),inactive: -12.5%
